# Data published in the supplement of paper PMC8728848.
# This is one part of the list.
# B1: FimD (Bordetella pertussis) (protein)
# chain: MPARVISFCGAALAVWAGLAVQPAMAVDPPVDCGRALGLHFWSSASLISDQTPDGTLIGKPVVGRSLLSKSCKVPDDIKEDLSDNHDGEPVDIVLELGSNYKIRPQSYGHPGIVVDLPFGSTEETGIAIYIDFGSSPMQKVGERQWLYPQKGEVLFDVLTINGDNAEVRYQAIKVGPLKRPRKLVLSQFPNLFTYKWVFMRGTSQERVLAQGTIDTDVATSTIDLKTCRYTSQTVSLPIIQRSALTGVGTTLGMTDFQMPFWCYGWPKVSVYMSATKTQTGVDGVALPATGQAAGMASGVGVQLINGKTQQPVKLGLQGKIALPEAQQTESATFSLPMKAQYYQTSTSTSAGKLSVTYAVTLNYD
# Key:
# Test in all cases: glycan array binding signal (z-score within array); higher = stronger binding
# Conditions in all cases: glycan notation: IUPAC condensed, linker removed
# [1] = molecular target: GlcNAc(a1-4)Gal(b1-3)GlcNAc
# In short: (§1)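 Negative Z-scores can be read as non-binding. The Z-score is calculated within each array and then averaged across arrays of one protein sequence at different concentrations or buffers and across linkers. Arrays, 3228 in all, were curated from the Consortium for Functional Glycomics database and kept only where the protein sequence was available.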
# [2] = molecular target: GlcNAc(a1-4)Gal(b1-4)GalNAc
# In short: as §1
# [3] = molecular target: GlcNAc(a1-4)Gal(b1-4)GlcNAc
# In short: as §1
# [4] = molecular target: GlcNAc(a1-4)Gal(b1-4)GlcNAc(b1-3)Gal(b1-4)Glc
# In short: as §1
# [5] = molecular target: GlcNAc(a1-4)Gal(b1-4)GlcNAc(b1-3)Gal(b1-4)GlcNAc
# In short: as §1
# [6] = molecular target: GlcNAc(a1-4)Gal(b1-4)GlcNAc(b1-3)Gal(b1-4)GlcNAc(b1-3)Gal(b1-4)GlcNAc
# In short: as §1
# [7] = molecular target: GlcNAc(a1-4)Gal(b1-4)GlcNAc(b1-3)Gal(b1-4)[Fuc(a1-3)]GlcNAc(b1-3)Gal(b1-4)[Fuc(a1-3)]GlcNAc
# In short: as §1
# [8] = molecular target: GlcNAc(a1-6)Gal(b1-4)GlcNAc
# In short: as §1
# [9] = molecular target: GlcNAc(b1-2)Gal(b1-3)GalNAc
# In short: as §1
# [10] = molecular target: GlcNAc(b1-2)Man(a1-3)[GlcNAc(b1-2)Man(a1-6)]Man(b1-4)GlcNAc(b1-4)GlcNAc
# In short: as §1
# [11] = molecular target: GlcNAc(b1-2)Man(a1-3)[GlcNAc(b1-2)Man(a1-6)]Man(b1-4)GlcNAc(b1-4)[Fuc(a1-6)]GlcNAc
# In short: as §1
# [12] = molecular target: GlcNAc(b1-2)Man(a1-3)[GlcNAc(b1-4)][GlcNAc(b1-2)Man(a1-6)]Man(b1-4)GlcNAc(b1-4)GlcNAc
# In short: as §1
# [13] = molecular target: GlcNAc(b1-2)Man(a1-3)[GlcNAc(b1-4)][GlcNAc(b1-2)Man(a1-6)]Man(b1-4)GlcNAc(b1-4)[Fuc(a1-6)]GlcNAc
# In short: as §1
# [14] = molecular target: GlcNAc(b1-2)[GlcNAc(b1-4)]Man(a1-3)[GlcNAc(b1-2)Man(a1-6)]Man(b1-4)GlcNAc(b1-4)GlcNAc
# In short: as §1
# [15] = molecular target: GlcNAc(b1-2)[GlcNAc(b1-4)]Man(a1-3)[GlcNAc(b1-4)][GlcNAc(b1-2)Man(a1-6)]Man(b1-4)GlcNAc(b1-4)GlcNAc
# In short: as §1
# [16] = molecular target: GlcNAc(b1-2)[GlcNAc(b1-4)]Man(a1-3)[GlcNAc(b1-4)][GlcNAc(b1-2)[GlcNAc(b1-6)]Man(a1-6)]Man(b1-4)GlcNAc(b1-4)GlcNAc
# In short: as §1
# [17] = molecular target: GlcNAc(b1-2)[GlcNAc(b1-4)]Man(a1-3)[GlcNAc(b1-4)][GlcNAc(b1-2)[GlcNAc(b1-6)]Man(a1-6)]Man(b1-4)GlcNAc(b1-4)[Fuc(a1-6)]GlcNAc
# In short: as §1
# [18] = molecular target: GlcNAc(b1-2)[GlcNAc(b1-6)]Man(a1-6)[GlcNAc(b1-2)Man(a1-3)]Man(b1-4)GlcNAc(b1-4)GlcNAc
# In short: as §1
# [19] = molecular target: GlcNAc(b1-2)[GlcNAc(b1-6)]Man(a1-6)[GlcNAc(b1-2)Man(a1-3)]Man(b1-4)GlcNAc(b1-4)[Fuc(a1-6)]GlcNAc
# In short: as §1
# [20] = molecular target: GlcNAc(b1-2)[GlcNAc(b1-6)]Man(a1-6)[GlcNAc(b1-4)][GlcNAc(b1-2)Man(a1-3)]Man(b1-4)GlcNAc(b1-4)GlcNAc
# In short: as §1
# [21] = molecular target: GlcNAc(b1-3)Fuc
# In short: as §1
# [22] = molecular target: GlcNAc(b1-3)Gal
# In short: as §1
# [23] = molecular target: GlcNAc(b1-3)Gal(b1-3)GalNAc
# In short: as §1
# [24] = molecular target: GlcNAc(b1-3)Gal(b1-4)Glc
# In short: as §1
# [25] = molecular target: GlcNAc(b1-3)Gal(b1-4)GlcNAc
# In short: as §1
# [26] = molecular target: GlcNAc(b1-3)Gal(b1-4)GlcNAc(b1-2)Man(a1-3)[GlcNAc(b1-3)Gal(b1-4)GlcNAc(b1-2)Man(a1-6)]Man(b1-4)GlcNAc(b1-4)GlcNAc
# In short: as §1
# [27] = molecular target: GlcNAc(b1-3)Gal(b1-4)GlcNAc(b1-2)Man(a1-3)[GlcNAc(b1-3)Gal(b1-4)GlcNAc(b1-2)Man(a1-6)]Man(b1-4)GlcNAc(b1-4)[Fuc(a1-6)]GlcNAc
# In short: as §1
# [28] = molecular target: GlcNAc(b1-3)Gal(b1-4)GlcNAc(b1-2)[GlcNAc(b1-3)Gal(b1-4)GlcNAc(b1-6)]Man(a1-6)[GlcNAc(b1-3)Gal(b1-4)GlcNAc(b1-2)Man(a1-3)]Man(b1-4)GlcNAc(b1-4)GlcNAc
# In short: as §1
# [29] = molecular target: GlcNAc(b1-3)Gal(b1-4)GlcNAc(b1-3)Gal(b1-4)GlcNAc
# In short: as §1
# [30] = molecular target: GlcNAc(b1-3)Gal(b1-4)GlcNAc(b1-3)Gal(b1-4)GlcNAc(b1-2)Man(a1-3)[GlcNAc(b1-3)Gal(b1-4)GlcNAc(b1-3)Gal(b1-4)GlcNAc(b1-2)Man(a1-6)]Man(b1-4)GlcNAc(b1-4)GlcNAc
# In short: as §1
# [31] = molecular target: GlcNAc(b1-3)Gal(b1-4)GlcNAc(b1-3)Gal(b1-4)GlcNAc(b1-2)Man(a1-3)[GlcNAc(b1-3)Gal(b1-4)GlcNAc(b1-3)Gal(b1-4)GlcNAc(b1-2)Man(a1-6)]Man(b1-4)GlcNAc(b1-4)[Fuc(a1-6)]GlcNAc
# In short: as §1
# [32] = molecular target: GlcNAc(b1-3)Gal(b1-4)GlcNAc(b1-3)Gal(b1-4)GlcNAc(b1-2)[GlcNAc(b1-3)Gal(b1-4)GlcNAc(b1-3)Gal(b1-4)GlcNAc(b1-6)]Man(a1-6)[GlcNAc(b1-3)Gal(b1-4)GlcNAc(b1-3)Gal(b1-4)GlcNAc(b1-2)Man(a1-3)]Man(b1-4)GlcNAc(b1-4)[Fuc(a1-6)]GlcNAc
# In short: as §1
# [33] = molecular target: GlcNAc(b1-3)Gal(b1-4)GlcNAc(b1-3)Gal(b1-4)GlcNAc(b1-3)Gal(b1-4)GlcNAc(b1-2)Man(a1-3)[GlcNAc(b1-3)Gal(b1-4)GlcNAc(b1-3)Gal(b1-4)GlcNAc(b1-3)Gal(b1-4)GlcNAc(b1-2)Man(a1-6)]Man(b1-4)GlcNAc(b1-4)GlcNAc
# In short: as §1
# [34] = molecular target: GlcNAc(b1-3)Gal(b1-4)GlcNAc(b1-3)Gal(b1-4)GlcNAc(b1-3)Gal(b1-4)GlcNAc(b1-2)Man(a1-3)[GlcNAc(b1-3)Gal(b1-4)GlcNAc(b1-3)Gal(b1-4)GlcNAc(b1-3)Gal(b1-4)GlcNAc(b1-2)Man(a1-6)]Man(b1-4)GlcNAc(b1-4)[Fuc(a1-6)]GlcNAc
# In short: as §1
# [35] = molecular target: GlcNAc(b1-3)Gal(b1-4)GlcNAc(b1-3)Gal(b1-4)GlcNAc(b1-3)Gal(b1-4)GlcNAc(b1-2)[GlcNAc(b1-3)Gal(b1-4)GlcNAc(b1-3)Gal(b1-4)GlcNAc(b1-3)Gal(b1-4)GlcNAc(b1-6)]Man(a1-6)[GlcNAc(b1-3)Gal(b1-4)GlcNAc(b1-3)Gal(b1-4)GlcNAc(b1-3)Gal(b1-4)GlcNAc(b1-2)Man(a1-3)]Man(b1-4)GlcNAc(b1-4)[Fuc(a1-6)]GlcNAc
# In short: as §1
# [36] = molecular target: GlcNAc(b1-3)Gal(b1-4)GlcNAc(b1-3)Gal(b1-4)GlcNAc(b1-3)Gal(b1-4)GlcNAc(b1-3)Gal(b1-4)GlcNAc(b1-2)Man(a1-3)[GlcNAc(b1-3)Gal(b1-4)GlcNAc(b1-3)Gal(b1-4)GlcNAc(b1-3)Gal(b1-4)GlcNAc(b1-3)Gal(b1-4)GlcNAc(b1-2)Man(a1-6)]Man(b1-4)GlcNAc(b1-4)GlcNAc
# In short: as §1
# [37] = molecular target: GlcNAc(b1-3)Gal(b1-4)GlcNAc(b1-3)Gal(b1-4)GlcNAc(b1-3)Gal(b1-4)GlcNAc(b1-3)Gal(b1-4)GlcNAc(b1-2)Man(a1-3)[GlcNAc(b1-3)Gal(b1-4)GlcNAc(b1-3)Gal(b1-4)GlcNAc(b1-3)Gal(b1-4)GlcNAc(b1-3)Gal(b1-4)GlcNAc(b1-2)Man(a1-6)]Man(b1-4)GlcNAc(b1-4)[Fuc(a1-6)]GlcNAc
# In short: as §1
# [38] = molecular target: GlcNAc(b1-3)Gal(b1-4)GlcNAc(b1-3)Gal(b1-4)GlcNAc(b1-3)Gal(b1-4)GlcNAc(b1-3)Gal(b1-4)GlcNAc(b1-2)[GlcNAc(b1-3)Gal(b1-4)GlcNAc(b1-3)Gal(b1-4)GlcNAc(b1-3)Gal(b1-4)GlcNAc(b1-3)Gal(b1-4)GlcNAc(b1-6)]Man(a1-6)[GlcNAc(b1-3)Gal(b1-4)GlcNAc(b1-3)Gal(b1-4)GlcNAc(b1-3)Gal(b1-4)GlcNAc(b1-3)Gal(b1-4)GlcNAc(b1-2)Man(a1-3)]Man(b1-4)GlcNAc(b1-4)[Fuc(a1-6)]GlcNAc
# In short: as §1
binder,measurement,setting,value
B1,glycan array binding signal (z-score),[1],-0.038
same,glycan array binding signal (z-score),[2],-0.046
same,glycan array binding signal (z-score),[3],0.198
same,glycan array binding signal (z-score),[4],1.99
same,glycan array binding signal (z-score),[5],0.499
same,glycan array binding signal (z-score),[6],-0.238
same,glycan array binding signal (z-score),[7],0.379
same,glycan array binding signal (z-score),[8],-0.109
same,glycan array binding signal (z-score),[9],0.056
same,glycan array binding signal (z-score),[10],0.004
same,glycan array binding signal (z-score),[11],1.06
same,glycan array binding signal (z-score),[12],-0.449
same,glycan array binding signal (z-score),[13],-0.367
same,glycan array binding signal (z-score),[14],-0.484
same,glycan array binding signal (z-score),[15],-0.493
same,glycan array binding signal (z-score),[16],-0.317
same,glycan array binding signal (z-score),[17],-0.389
same,glycan array binding signal (z-score),[18],-0.276
same,glycan array binding signal (z-score),[19],-0.061
same,glycan array binding signal (z-score),[20],-0.119
same,glycan array binding signal (z-score),[21],-0.267
same,glycan array binding signal (z-score),[22],-0.154
same,glycan array binding signal (z-score),[23],-0.223
same,glycan array binding signal (z-score),[24],-0.247
same,glycan array binding signal (z-score),[25],-0.296
same,glycan array binding signal (z-score),[26],-0.254
same,glycan array binding signal (z-score),[27],-0.128
same,glycan array binding signal (z-score),[28],1.12
same,glycan array binding signal (z-score),[29],-0.049
same,glycan array binding signal (z-score),[30],0.779
same,glycan array binding signal (z-score),[31],-0.021
same,glycan array binding signal (z-score),[32],1.12
same,glycan array binding signal (z-score),[33],-0.233
same,glycan array binding signal (z-score),[34],0.32
same,glycan array binding signal (z-score),[35],1.29
same,glycan array binding signal (z-score),[36],0.316
same,glycan array binding signal (z-score),[37],-0.184
same,glycan array binding signal (z-score),[38],0.07
